# Over roughly 33,000 sequences, “E-score (-0.5 to 0.5)” has its median near -0.013; the highest 2% begin near 0.3. This is one part of the list.
# Molecular target: T1, Msn1 (UniProt P22148)
# T1 sequence: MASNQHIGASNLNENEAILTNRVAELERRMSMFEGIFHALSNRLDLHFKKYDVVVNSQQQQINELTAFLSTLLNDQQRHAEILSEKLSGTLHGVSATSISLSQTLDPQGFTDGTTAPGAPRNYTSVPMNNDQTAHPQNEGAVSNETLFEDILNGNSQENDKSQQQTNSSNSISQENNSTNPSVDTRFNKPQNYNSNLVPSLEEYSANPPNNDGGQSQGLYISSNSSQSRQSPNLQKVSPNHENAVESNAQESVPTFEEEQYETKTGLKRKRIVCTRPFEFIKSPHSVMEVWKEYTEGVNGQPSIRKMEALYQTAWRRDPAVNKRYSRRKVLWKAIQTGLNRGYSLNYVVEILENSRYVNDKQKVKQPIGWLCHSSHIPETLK
# Test: PBM E-score (8-mer binding enrichment) (E-score (-0.5 to 0.5)); higher = stronger / more preferred TF binding; most listed sequences are background and not binding sites
# Settings: protein concentration: 200 nM; construct: GST-full length
# Procedure, shortened: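 PURExpress in vitro transcription/translation supplied GST-tagged yeast transcription factors, either full-length or DNA-binding domain. Applied at about 100-200 nM to universal all-10-mer Agilent arrays double-stranded by primer extension, the bound protein was detected with fluorescent anti-GST. E-scores, modified Wilcoxon-Mann-Whitney statistics, were given by the Universal PBM Analysis Suite to ungapped eight-base words pooled with their reverse complements after masliner normalisation.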
row,Sequence,PBM E-score
1,CAAAATAG,0.025
2,GTCGCCGA,0.0541
3,AACCCGTC,-0.142
4,GCAGTAAC,-0.177
5,ATACTCTA,-0.0893
6,AAAAACTA,0.175
7,GAGACACA,0.272
8,ACTTCAAC,0.0598
9,CGTGTGGA,-0.149
10,TAGCCGAA,0.0236
11,TACCGCTA,-0.116
12,TCACTAGA,0.0764
13,CTTAGTCC,0.0798
14,AGAACCGC,0.0757
15,AGACACTC,0.0424
16,CAGTAATG,-0.0728
17,ACACCCAC,-0.0452
18,CCTCGGCC,-0.0291
19,CGTTATAC,-0.0611
20,AGTAACTA,0.00829
21,CAAATAAG,0.05
22,CATTCAAC,0.0646
23,ATTAGATG,0.207
24,TTAAAGAA,0.197
25,CATCCGGC,-0.0374

row,Sequence,PBM E-score
1,TAAGGGAA,-0.05
2,ACCAAACT,-0.0813
3,ACCATGAA,0.13
4,GTGCATAA,0.0358
5,GTGGTCCA,0.0746
6,CGGGCGCC,-0.0285
7,ATGCCAGA,0.0266
8,AGTTGGCC,-0.159
9,GCTTCCAC,-0.128
10,GCCCAAGA,-0.0404
11,AAGATCCT,0.164
12,AATTGAGG,-0.0214
13,ATATATCA,0.0451
14,ACCGCCTC,-0.193
15,ACAGATCT,0.0457
16,AAGGTCGC,-0.181
17,CTATTCAG,0.0155
18,AAGGCAAC,-0.0117
19,ACGGGACA,0.384
20,CAGATTTA,0.197
21,GCTGTAAC,0.127
22,AATCACCC,0.157
23,AGAGGGGC,-0.249
24,AAAGATAC,0.0266
25,AGTTTAGA,0.0872

row,Sequence,PBM E-score
1,AGGTGGAA,0.0843
2,CCTATAAG,-0.145
3,ACAGATCC,0.0784
4,ACAAGTCG,0.0205
5,AAACACGT,-0.0326
6,AATCAATT,0.0557
7,AGGCACTA,-0.16
8,AGGATACC,-0.0528
9,ATACGTCC,0.146
10,AGCTAGCG,-0.214
11,CTCGGCAA,0.0915
12,ACCGAAGA,0.103
13,CAAGCAAC,0.0358
14,AATTCTAG,0.0838
15,ATTGGCTA,-0.0374
16,GTAACGTA,0.0421
17,CTTTATCC,0.0812
18,CTCTGGCC,-0.261
19,ATGATACG,0.0521
20,GTGACCAA,0.133
21,AGATTTCG,-0.00257
22,CATTTCTA,0.248
23,AGAGTTGA,0.091
24,GAACCCAC,-0.0538
25,TGTACCAA,0.328

row,Sequence,PBM E-score
1,ACCGGCCG,-0.0174
2,GAAGTCCC,-0.0665
3,GACGGGAA,-0.00407
4,CTGCTGGA,-0.0693
5,CCATGACA,0.294
6,CAGTATCG,-0.0345
7,ACAAGCCA,0.0835
8,ACCTATTA,-0.0249
9,ATAAACTC,0.156
10,CGGCAAGC,-0.059
11,CCGCACAG,-0.0231
12,ATTCATAA,0.12
13,CTCGTGCC,-0.246
14,AGGCAATG,-0.0429
15,CCCTGGCG,-0.153
16,ATATCCTC,-0.0444
17,AGGGTGAC,-0.00567
18,CTATATCC,-0.181
19,GACCTTAA,-0.0217
20,CAACTTGG,0.0103
21,AGGGTGAG,-0.342
22,AGAGTACT,0.114
23,CGACATTC,0.332
24,AAGGGGTC,-0.189
25,GCAGACGC,0.016

row,Sequence,PBM E-score
1,GAGGTACA,0.213
2,AACTGAAT,-0.169
3,CTCGTCGA,-0.0514
4,GCCTCCCC,-0.2
5,CTATTCGC,0.0783
6,GTAATCAA,0.102
7,AACTATCT,-0.0223
8,CCCCCTGC,-0.381
9,AGTCCTGC,0.0243
10,CTGAGCAC,-0.206
11,ACAGAGTG,0.0421
12,AGAATAAA,0.19
13,GTGCCTAA,-0.0609
14,AATGATAT,0.155
15,AGGGACAT,0.488
16,GACGGCTA,-0.12
17,TAAGAATA,-0.0196
18,ATGCGTCG,0.153
19,CATGCCCG,0.0245
20,GCAAAATA,0.192
21,GCAATAGC,-0.231
22,ATCAGTAA,-0.066
23,CGCAATGA,0.1
24,CTTCTTCA,-0.18
25,GGTCGACC,0.0655

row,Sequence,PBM E-score
1,CATCATAA,0.161
2,CCAGAAAA,0.059
3,CTAATGAC,-0.12
4,CCGTGGTA,-0.147
5,AACGGCCC,-0.337
6,CAGTAAAA,0.185
7,ACGGTATC,-0.0322
8,ATCGTGAA,0.0393
9,CCGATAGA,0.105
10,CAACAACG,0.0487
11,CCTTTAGA,-0.097
12,TCACAGCA,0.0126
13,GAATTAGC,-0.0723
14,AAAGTAAT,0.209
15,AGAAGTAC,-0.0605
16,GAGATCAC,-0.035
17,TGCGCAAA,0.139
18,AACACACA,0.133
19,GCGGTACC,-0.102
20,GTCGTGAA,0.0457
21,TGCCAGCA,-0.0784
22,CAAGGTTA,-0.058
23,CAGACCAA,0.0863
24,ACCTCCGC,-0.0319
25,CAAGCACA,-0.00806

row,Sequence,PBM E-score
1,AATAATTG,0.229
2,CTTGTTCA,-0.0388
3,CCGTACGG,-0.199
4,ACAGTGGG,-0.0906
5,AAAGTATA,-0.0125
6,ATAACGAA,0.107
7,AACGGCGG,-0.104
8,CAACAGGG,-0.184
9,AGCGACCG,0.0133
10,GTGCACAA,-0.0401
11,AGTACCGC,-0.00702
12,ATGGTCGG,-0.0896
13,ATTGTCTG,0.34
14,CAGAAAGC,-0.0396
15,GGTTTAAA,0.16
16,ACGTCGAA,0.0529
17,AAGTCCGT,0.224
18,CAATATAG,0.0304
19,CTGCACTA,0.212
20,AGGCATAA,-0.118
21,AACTCTGA,0.196
22,AGATCTTG,-0.103

# From the supplement of paper PMC3334620
